Counter-ions that a name gives are not always drawn. The list shows a part of the results. Most values come without repeats; read them as rough.
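Further: stationary (unshaken) cultures in 96-well plates, started at OD600 0.05 from mid-exponential cells, with compounds supplied from DMSO stocks.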

The experiment has as its system Escherichia coli W3110. The experiment is described as follows: planktonic growth (OD600) relative to untreated control; higher = more growth. The settings on record: 10 µM; 20-24 h; 30 °C; TB.
`COC(=O)Nc1nc2ccc(SC(C)C)cc2[nH]1` [Methiazole]: the planktonic growth is 91%. Turning to `CN(C)CCOc1ccc(/C(=C(/CCCl)c2ccccc2)c2ccccc2)cc1` [Toremifene], the planktonic growth was determined as 115%. The same measure for `CCN1CCN(C(=O)N[C@@H](C(=O)N[C@@H]2C(=O)N3C(C(=O)O)=C(CSc4nnnn4C)CS[C@H]23)c2ccc(O)cc2)C(=O)C1=O` [Cefoperazone dihydrate]: 17%.

As for `CC(NCCC(c1ccccc1)c1ccccc1)c1ccccc1` (stereo not given) [Fendiline hydrochloride], the planktonic growth is 93%. Turning to `O=c1[nH]c(=O)n(C2CCCO2)cc1F` (stereo not given) [Tegafur], the planktonic growth came out at 94%. `Cc1c(N(C)CS(=O)(=O)O)c(=O)n(-c2ccccc2)n1C` [Dipyrone] displayed a planktonic growth of 105%. The same measure for `CC(C)NC[C@@H](O)COc1cccc2ccccc12` [(R)-Propranolol hydrochloride]: 93%. In the case of `CCN(CC)CCc1nc(-c2ccccc2)no1` [Oxalamine citrate salt], the planktonic growth was 96%. The figure for `CNCC(O)c1ccc(OC(=O)C(C)(C)C)c(OC(=O)C(C)(C)C)c1` (stereo not given) [Dipivefrin hydrochloride] is 103%; for `CC(C)NCC(O)c1ccc(O)c(O)c1` (single isomer, unassigned; (+)) [(+)-Isoproterenol (+)-bitartrate salt] it is 94%. Regarding `CN1CCN(CCCN2c3ccccc3Sc3ccc(Cl)cc32)CC1` [Prochlorperazine dimaleate], the planktonic growth was 107%. Consider `Cc1nc(=O)c2cc(CN(C)c3ccc(C(=O)N[C@@H](CCC(=O)O)C(=O)O)s3)ccc2[nH]1` [Raltitrexed], for which the planktonic growth came out at 103%. With `O=c1oc2ccccc2c(O)c1Cc1c(O)c2ccccc2oc1=O` [Dicumarol], the planktonic growth is 92%.

Compound `Nc1cc(C(Cl)=C(Cl)Cl)c(S(N)(=O)=O)cc1S(N)(=O)=O` [Clorsulon] showed a planktonic growth of 91%.

With `CC[C@H](C)C(=O)O[C@H]1CCC=C2C=C[C@H](C)[C@H](CC[C@@H]3C[C@@H](O)CC(=O)O3)[C@H]21` [Mevastatin], the planktonic growth was 104%. `COc1c2occc2c(OC)c2c(=O)cc(C)oc12` [Khellin]: the planktonic growth amounted to 98%. Take `NNc1nncc2ccccc12` [Hydralazine hydrochloride]: the planktonic growth worked out at 108%. The compound `CC(=O)OCC(CCn1cnc2cnc(N)nc21)COC(C)=O` [Famciclovir] displayed a planktonic growth of 102%. Turning to `CN1CCN(c2c(F)cc3c(=O)c(C(=O)O)cn(CCF)c3c2F)CC1` [Fleroxacin], the planktonic growth is 22%. The figure for `C[C@H](CCC(=O)O)[C@H]1CC[C@H]2[C@@H]3[C@H](O)C[C@@H]4C[C@H](O)CC[C@]4(C)[C@H]3CC[C@]12C` [Chenodiol] is 101%; for `c1ccc([C@H]2CN3CCSC3=N2)cc1` [Levamisole hydrochloride] it is 93%. The same measure for `CCC(=O)O[C@]1(C(=O)CCl)[C@@H](C)C[C@H]2[C@@H]3CCC4=CC(=O)C=C[C@]4(C)[C@@]3(F)[C@@H](O)C[C@@]21C` [Clobetasol propionate]: 89%; for `O=S(=O)(O)c1cc(O)ccc1O` [Ethamsylate]: 85%. For the compound `O=C1OCCN1/N=C/c1ccc([N+](=O)[O-])o1` [Furazolidone], the planktonic growth was 68%. The same measure for `C[C@H]1C[C@@H]2[C@H]([C@@H](O)C[C@@]3(C)[C@H]2CC[C@]3(O)C(=O)CO)[C@@]2(C)C=CC(=O)C=C12` [Methylprednisolone, 6-alpha]: 95%; for `COc1ccccc1OCC(O)CN1CCN(CC(=O)Nc2c(C)cccc2C)CC1` (stereo not given) [Ranolazine]: 92%; for `COc1cc([C@@H]2c3cc4c(cc3[C@@H](O[C@@H]3O[C@@H]5CO[C@@H](C)O[C@H]5[C@H](O)[C@H]3O)[C@H]3COC(=O)[C@H]23)OCO4)cc(OC)c1O` [Etoposide]: 98%. In turn, `CCCNCC(O)COc1ccccc1C(=O)CCc1ccccc1` (stereo not given) [Propafenone hydrochloride] displayed a planktonic growth of 86%. In turn, `NC(=O)C(c1ccccc1)(c1ccccc1)[C@@H]1CCN(CCc2ccc3c(c2)CCO3)C1` [Darifenacin hydrobromide] registered a planktonic growth of 103%.

On to `CN(C)c1nc(N(C)C)nc(N(C)C)n1` [Altretamine], for which the planktonic growth came to 99%.

Consider `Nc1nc2n[nH]nc2c(=O)[nH]1` [Azaguanine-8], for which the planktonic growth was determined as 114%. In the case of `CC(C)NCC(O)c1ccc2ccccc2c1` (stereo not given) [Pronethalol hydrochloride], the planktonic growth came to 94%. Compound `CCOC(=O)C1=C(COCCN)NC(C)=C(C(=O)OC)C1c1ccccc1Cl` (stereo not given) [Amlodipine] returned a planktonic growth of 70%. As for `COc1ccc(/C=C/C(=O)Nc2ccccc2C(=O)O)cc1OC` [Tranilast], the planktonic growth was determined as 103%. The figure for `Cc1c(N(C)C)c(=O)n(-c2ccccc2)n1C` [Amidopyrine] is 104%; for `Oc1c(Cl)cc(Cl)c(Cl)c1Cc1c(O)c(Cl)cc(Cl)c1Cl` [Hexachlorophene] it is 65%; for `CC(=O)[C@H]1CC[C@H]2[C@@H]3C=CC4=CC(=O)CC[C@@]4(C)[C@@H]3CC[C@]12C` [Dydrogesterone] it is 107%.

On to `Nc1nc(CC(=O)Nc2ccc(CCNC[C@H](O)c3ccccc3)cc2)cs1` [Mirabegron], for which the planktonic growth turned out to be 110%. On to `NC[C@@H]1O[C@H](O[C@H]2[C@@H](O)[C@H](O[C@@H]3[C@@H](O)[C@H](N)C[C@H](N)[C@H]3O[C@H]3O[C@H](CO)[C@@H](O)[C@H](O)[C@H]3N)O[C@@H]2CO)[C@H](N)[C@@H](O)[C@@H]1O` [Paromomycin sulfate], for which the planktonic growth stood at 85%. For `COc1ccccc1OCC(O)CO` (stereo not given) [Guaifenesin], the planktonic growth was determined as 91%. Compound `Cc1cccc(C)c1OCC(C)N` (stereo not given) [Mexiletine hydrochloride] had a planktonic growth of 110%. For `N#Cc1cc(NC(=O)C(=O)O)c(Cl)c(NC(=O)C(=O)O)c1` [Lodoxamide], the planktonic growth amounted to 105%. The compound `CN1[C@@H]2CC[C@H]1C[C@@H](OC(=O)c1c[nH]c3ccccc13)C2` [Tropisetron hydrochloride] came in with a planktonic growth of 96%.

In the case of `O=C(OCC(O)CO)c1ccccc1Nc1ccnc2cc(Cl)ccc12` (stereo not given) [Glafenine hydrochloride], the planktonic growth came out at 87%. For `CC(C(=O)O)c1ccc(-c2ccccc2)c(F)c1` (stereo not given) [Flurbiprofen], the planktonic growth was 74%. The same measure for `C[C@H]1O[C@@H](O[C@H]2[C@@H](O)C[C@H](O[C@H]3[C@@H](O)C[C@H](O[C@H]4CC[C@@]5(C)[C@H](CC[C@@H]6[C@@H]5C[C@@H](O)[C@]5(C)[C@@H](C7=CC(=O)OC7)CC[C@]65O)C4)O[C@@H]3C)O[C@@H]2C)C[C@H](O)[C@@H]1O` [Digoxin]: 93%; for `CCCCc1cc2ccccc2c(OCCN(C)C)n1` [Dimethisoquin hydrochloride]: 98%. For `CC(C(=O)O)c1ccc2c(c1)[nH]c1ccc(Cl)cc12` (stereo not given) [Carprofen], the planktonic growth was determined as 98%. The same measure for `Cc1cccc(C)c1NC(=O)C(C)N` (stereo not given) [Tocainide hydrochloride]: 83%; for `CN(C)C(=O)C(CCN1CCC(O)(c2ccc(Cl)cc2)CC1)(c1ccccc1)c1ccccc1` [Loperamide hydrochloride]: 100%; for `Cc1ccccc1C(=O)Nc1ccc(C(=O)N2CCCC(O)c3cc(Cl)ccc32)c(C)c1` (stereo not given) [Tolvaptan]: 95%. For the compound `CC(C)(C)NCC(O)COc1cccc2c1CCC(=O)N2` (stereo not given) [Carteolol hydrochloride], the planktonic growth is 102%. `C=C1c2c(Cl)ccc(O)c2C(=O)C2=C(O)[C@]3(O)C(=O)C(C(N)=O)=C(O)[C@@H](N(C)C)[C@@H]3[C@@H](O)[C@H]12.O=C(O)c1cc(S(=O)(=O)O)ccc1O` [Meclocycline sulfosalicylate] showed a planktonic growth of 34%.

As to `CCOC(=O)O[C@]1(C(=O)COC(=O)CC)CC[C@H]2[C@@H]3CCC4=CC(=O)C=C[C@]4(C)[C@H]3[C@@H](O)C[C@@]21C` [Prednicarbate], the planktonic growth was found to be 103%.

`CC(=O)NCCCS(=O)(=O)O` [Acamprosate calcium] showed a planktonic growth of 96%. The figure for `O=C(C1CCCCC1)N1CC(=O)N2CCc3ccccc3C2C1` (stereo not given) [Praziquantel] is 96%; for `C(=C\c1ccccc1)/CN1CCN(C(c2ccccc2)c2ccccc2)CC1` [Cinnarizine] it is 106%. `COc1ccc2c(c1)c(CC(=O)O)c(C)n2C(=O)c1ccc(Cl)cc1` [Indomethacin] had a planktonic growth of 98%. `CN1CCC(=C2c3ccccc3CCc3cccnc32)CC1` [Azatadine maleate]: the planktonic growth came to 93%.

In turn, `Nc1nc2ccc(OC(F)(F)F)cc2s1` [Riluzole hydrochloride] came in with a planktonic growth of 106%. `CN(C(=O)C(Cl)Cl)c1ccc(OC(=O)c2ccco2)cc1` [Diloxanide furoate]: the planktonic growth was 98%.

Take `Nc1ccn([C@H]2CC[C@@H](CO)O2)c(=O)n1` [Zalcitabine]: the planktonic growth came out at 98%. With `Oc1c(I)cc(Cl)c2cccnc12` [Clioquinol], the planktonic growth was 37%.

For `CC(C)(C#N)c1cc(Cn2cncn2)cc(C(C)(C)C#N)c1` [Anastrozole], the planktonic growth was 112%. `CN(C)CCOC(C)(c1ccccc1)c1ccccn1` (stereo not given) [Doxylamine succinate] had a planktonic growth of 94%. Compound `CC(=O)c1ccc2c(c1)N(CCCN(C)C)c1ccccc1S2` [Acetopromazine maleate salt] came in with a planktonic growth of 94%. `CC[C@H](C)[C@H](N)C1=N[C@H](C(=O)N[C@@H](CC(C)C)C(=O)N[C@H](CCC(=O)O)C(=O)N[C@H](C(=O)N[C@H]2CCCCNC(=O)[C@H](CC(N)=O)NC(=O)[C@@H](CC(=O)O)NC(=O)[C@H](Cc3cnc[nH]3)NC(=O)[C@@H](Cc3ccccc3)NC(=O)[C@H]([C@@H](C)CC)NC(=O)[C@@H](CCCN)NC2=O)[C@@H](C)CC)CS1` [Bacitracin] gave a planktonic growth of 85%. The figure for `OC(CNCC(O)C1CCc2cc(F)ccc2O1)C1CCc2cc(F)ccc2O1` (stereo not given) [Nebivolol hydrochloride] is 107%; for `CN1CCN(CCCN2c3ccccc3Sc3ccc(C(F)(F)F)cc32)CC1` [Trifluoperazine dihydrochloride] it is 99%. `CN(C)CCN1C(=O)c2ccccc2N(C)c2ccccc21` [Dibenzepine hydrochloride] yielded a planktonic growth of 96%.

The values are drawn from the supplement of paper PMC7580552.
